Laboratory results as given in patent publication US20260116960A1 (SHANGHAI HONGCHENG BIOPHARMACEUTICAL, published 2026).

Tests used:
human VEGFA 165 protein = molecular target: T1, human VEGFA 165 protein (human, UniProt P15692-4 27-191); assay: cell-based or functional assay
T1 sequence (looked up): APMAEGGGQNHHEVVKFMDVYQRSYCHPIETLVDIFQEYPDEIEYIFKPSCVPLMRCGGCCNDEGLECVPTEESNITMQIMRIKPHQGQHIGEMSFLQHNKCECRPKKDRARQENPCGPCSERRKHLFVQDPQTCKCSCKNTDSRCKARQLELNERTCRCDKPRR

[1] = molecular target: T2, human PD-1 on the cell surface (human, UniProt Q15116 25-288); assay: flow cytometry, 293T-hPD-1 cells, batch FACS#2
T2 construct: whole, on cells; also called cell surface PD-1
Method: After centrifugation at 300 g for 5 minutes, the supernatant was discarded. The antibodies were serially diluted 3-fold with FACS buffer to obtain two gradient series solution FACS #1 and FACS #2, with the starting concentration of 200 nM (Table 5, FACS #1) or 100 nM (Table 5, FACS #2, FIG. 2), respectively. Then 100 μL/well was added to a 96-well plate in triplicate, mixed, and incubated at 4° C. for 60 min. The plate was centrifuged and washed three times with FACS buffer. 100 μL/well of 1:800 diluted AF647-anti-hIgG(H+L) (Jackson, Catalog No.: 109-605-003) was added and incubated at 4° C. for 50 minutes. After washing the plate three times with FACS buffer, 100 μL/well of FACS buffer was added to resuspend the cells, and the fluorescence signal was detected on a flow cytometer (BECKMAN COULTER cytoFLEX). The binding activity was fitted using a four-parameter model to calculate the EC₅₀ value of each antibody binding to PD-1.

[2] = molecular target: T2, human PD-1 on the cell surface; assay: flow cytometry competition, 293T-hPD-1 cells, biotin-human PD-L1
T2 sequence (Q15116 25-288): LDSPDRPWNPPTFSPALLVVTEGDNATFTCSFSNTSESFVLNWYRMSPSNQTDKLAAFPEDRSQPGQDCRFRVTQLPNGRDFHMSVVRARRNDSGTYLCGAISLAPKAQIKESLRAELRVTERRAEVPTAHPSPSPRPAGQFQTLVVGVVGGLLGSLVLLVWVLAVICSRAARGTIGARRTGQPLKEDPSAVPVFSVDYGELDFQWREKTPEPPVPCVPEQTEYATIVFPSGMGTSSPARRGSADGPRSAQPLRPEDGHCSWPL
Method: 50 μL of antibody solution serially diluted 3-fold in FACS buffer was added in triplicate, with a starting concentration of 200 nM. After mixing, incubated at 4° C. for 60 minutes. After washing three times with FACS buffer, 100 μL/well of 1:800 diluted PE Streptavidin was added and incubated at 4° C. for 50 min. After washing three times with FACS buffer, 150 μL/well of PBS was added to resuspend the cells, and the fluorescence signal was detected on a flow cytometer (BECKMAN COULTER cytoFLEX). The four-parameter model was used to fit the binding activity and the IC₅₀ value of the blocking activity of each antibody was calculated.

[3] = molecular target: T3, human CTLA-4 on the cell surface (human, UniProt P16410 36-223); assay: flow cytometry competition, CHO-hCTLA-4 cells, biotin-human CD80
T3 construct: whole, on cells; also called CHO-hCTLA-4 cells; CHOK1-hCTLA4 cells
T3 sequence (P16410 36-223): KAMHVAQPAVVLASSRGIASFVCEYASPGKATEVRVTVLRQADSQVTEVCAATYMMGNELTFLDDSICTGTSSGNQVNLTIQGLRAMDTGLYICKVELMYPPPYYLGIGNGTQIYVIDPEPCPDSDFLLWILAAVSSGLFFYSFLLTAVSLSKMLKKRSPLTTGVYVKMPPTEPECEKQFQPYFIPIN
Method: CHO-hCTLA-4 cells were obtained by trypsin digestion, washed twice with PBS containing 2% FBS (FACS buffer), and resuspended in FACS buffer. 200 μL of the cells were added to a 96-well U-bottom plate, approximately 2×10⁵ cells/well. After centrifugation at 300 g for 5 minutes, the supernatant was discarded. […] After washing three times with FACS buffer, 100 μL/well of 1:800 diluted PE Streptavidin was added and incubated at 4° C. for 50 min. After washing three times with FACS buffer, 150 μL/well of PBS was added to resuspend the cells, and the fluorescence signal was detected on a flow cytometer (BECKMAN COULTER cytoFLEX). The four-parameter model was used to fit the binding activity and the IC₅₀ value of the blocking activity of each antibody was calculated.

[4] = molecular target: T4, hPD1-mFc (Acro, Catalog No. PD1-H5255) (human, UniProt Q15116 in part); assay: flow cytometry: antibody titrated on CHOK1-hCTLA4 cells, then mixture of hPD1-mFc and biotin-hVEGF165; AF647 anti-mIgG signal
T4 construct: Bought protein; also called human PD-1 mouse Fc fusion; not shown: mouse Fc (mFc)
Method: CHOK1-hCTLA4 cells were obtained by trypsin digestion, washed twice with PBS containing 2% FBS (FACS buffer), and the cell density was adjusted to about 8×10⁵ cells/ml. 200 μL/well of the cells were added to a 96-well U-bottom plate. After centrifugation at 300 g for 5 minutes, the supernatant was discarded and 100 μL of antibody solution serially diluted with FACS buffer was added in triplicate (with starting concentration of 200 nM, 3-fold serial dilution, and the same volume of FACS buffer was used as a negative control). Mixed well and incubated at 4° C. for 60 min. After washing the plate three times with FACS buffer, a mixture consisting of 1 μg/mL hPD1-mFc (Acro, Catalog No.: PD1-H5255) and 1 μg/mL Biotin-hVEGF165 in a 1:1 volume ratio was added to each well at 100 μL/well to detect the simultaneously binding activity of the trispecific antibodies to VEGF and PD-1 after binding to cell surface CTLA-4. […] After washing the plate three times with FACS buffer, 100 μL/well of PBS solution was added to resuspend the cells, and the fluorescence signal was detected on a flow cytometer. The binding activity was fitted using a four-parameter model, and the EC₅₀ value of each antibody was calculated.

[5] = molecular target: T5, Biotinylated Human VEGF165 (Acro, Catalog No. VE5-H82Q0) (human, UniProt P15692-4 27-191, biotinylated (site not stated)); assay: flow cytometry: antibody titrated on activated human T cells, detected with 2 ug/mL biotinylated human VEGF165 and PE streptavidin
T5 construct: Bought protein; also called Biotinylated-hVEGF165; Biotin-hVEGF165
T5 sequence (looked up): T1 sequence (looked up)
Method: After mixing, incubated at 4° C. for 60 minutes. […] The binding activity was fitted using a four-parameter model, and the EC₅₀ value of each antibody was calculated.

B1: HC010-F8 (trispecific antibody, human IgG4 S228P, kappa)
heavy: EVQLVESGGGLVQPGGSLRLSCAASGFTFSSYGMSWVRQAPGKCLEWVSTISGGGRDTYYPDSVKGRFTISRDNSKNTLYLQMNSLRAEDTAVYYCARQNGITWFADWGQGTLVTVSSGGGGSGGGGSGGGGSGGGGSDIQMTQSPSSLSASVGDRVTITCRASESVDNYGISFMNWYQQKPGKAPKLLIYAASNQGSGVPSRFSGSGSGTDFTLTISSLQPEDFATYYCQQSKEVPWTFGCGTKVEIKGGGGSGGGGSGGGGSGGGGSEVQLVESGGGLVQPGGSLRLSCAASGYTFTNYGMNWVRQAPGKGLEWVGWINTYTGEPTYAADFKRRFTFSLDTSKSTAYLQMNSLRAEDTAVYYCAKYPHYYGSSHWYFDVWGQGTLVTVSSASTKGPSVFPLAPCSRSTSESTAALGCLVKDYFPEPVTVSWNSGALTSGVHTFPAVLQSSGLYSLSSVVTVPSSSLGTKTYTCNVDHKPSNTKVDKRV[human IgG4 Fc with S228P (EU numbers) not spelt out]AGGGGSGGGGSGGGGSGGGGSEVQLLESGGGLVQPGGSLRLSCAASGSIFSINHMAWYRQAPGKQRELVAGVNSRGTTNYVDSVKGRFTISRDNSKNTLYLQMNSLRAEDTAVYYCRALGGAVAAWGQGTLVTVSS
light: DIQMTQSPSSLSASVGDRVTITCSASQDISNYLNWYQQKPGKAPKVLIYFTSSLHSGVPSRFSGSGSGTDFTLTISSLQPEDFATYYCQQYSTVPWTFGQGTKVEIKRTVAAPSVFIFPPSDEQLKSGTASVVCLLNNFYPREAKVQWKVDNALQSGNSQESVTEQDSKDSTYSLSSTLTLSKADYEKHKVYACEVTHQGLSSPVTKSFNRGEC
notes: light: bevacizumab VL-kappa; also called H010-F8
Human VEGFA 165 protein
  IC50, inhibition of VEGFA-induced HUVEC cell proliferation (CellTiter-Glo): 0.86 nM
[1]
  EC50: 1.81 nM
[2]
  IC50: 5.5 nM
[3]
  IC50: 13.7 nM
[4]
  EC50: 1.92 nM
[5]
  EC50: 0.44 nM
